From PMC10726135 come the findings set out here.

The list shows a part of the results. At the low end of the ranking the order means little. The protein was read in a cell extract, so binding may be indirect.

This assay has as its target T1, HNF4alpha8 (COS-7 nuclear extract) (UniProt P41235-5).
T1 sequence: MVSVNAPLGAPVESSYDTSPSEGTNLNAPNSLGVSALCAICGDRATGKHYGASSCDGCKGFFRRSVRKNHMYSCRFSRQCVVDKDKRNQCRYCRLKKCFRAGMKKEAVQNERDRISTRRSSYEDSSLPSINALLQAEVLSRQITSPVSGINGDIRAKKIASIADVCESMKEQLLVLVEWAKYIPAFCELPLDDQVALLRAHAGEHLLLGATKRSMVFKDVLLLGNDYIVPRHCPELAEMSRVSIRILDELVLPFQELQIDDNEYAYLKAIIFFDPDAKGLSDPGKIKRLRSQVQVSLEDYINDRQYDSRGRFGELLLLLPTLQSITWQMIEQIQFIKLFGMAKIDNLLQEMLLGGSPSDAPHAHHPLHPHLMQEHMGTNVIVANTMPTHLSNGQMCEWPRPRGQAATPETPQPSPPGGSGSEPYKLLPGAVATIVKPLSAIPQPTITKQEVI
Put plainly: protein-binding microarray. The note with it: COS-7 nuclear extract on double-stranded Agilent 4x180k PBM; binding buffer, salt, pH and temperature not given; high values mean tight binding; double strand, one strand shown; sequences stand for … in …GCCTAGGGAGATTAGAGTATCGGTCGA
Regarding TCAAAGGCCAAATTGACACCGTATCATCAA, the binding signal (log2 normalized intensity) was -1.27.

Take GTGTGGGACTTTGGTCTGCTGAGTCTCATG: the binding signal (log2 normalized intensity) is 2.52.

On to TCCCCCGCCAGATGTTTTTACCCTGAAGGA, for which the binding signal (log2 normalized intensity) is 2.88.

With GCAAGAGAATCAGAGAGATACTGAACCTTG, the binding signal (log2 normalized intensity) was 2.85.

As for AGTGCAAGCAAACATACTGCTTATTTAAAT, the binding signal (log2 normalized intensity) was -1.38.

Regarding GTATTACCTGCATCTGCCCAGCAGAGCAGT, the binding signal (log2 normalized intensity) was -1.31.

In the case of ATAAAGGGCAGGAACATCAGACACAGAGAT, the binding signal (log2 normalized intensity) is -1.34.

For CCTGTGCCCACTTTCCTGGGCCGGGGTAGC, the binding signal (log2 normalized intensity) was 0.114.

CCTAGAAAAACAACTAAAGGAATGCGCCTG: the binding signal (log2 normalized intensity) was -1.03.

As for AAACAGGAAAAAGGGACAAAACTTCAAAGC, the binding signal (log2 normalized intensity) was -1.25.

GTCCTGGGGCGATGCTTCCAAAGTCCACAG: the binding signal (log2 normalized intensity) worked out at 5.12.

Turning to ACAGCATTAAGCTGAGGCAGAGTTGTTTGC, the binding signal (log2 normalized intensity) was -1.15.

Take TGGGGCCCATTACAGACTTTCAACAAGGTG: the binding signal (log2 normalized intensity) turned out to be 1.26.

TGTAGGGAAATAAAACAGTCCATTTCAGTG: the binding signal (log2 normalized intensity) is -0.78.

CAGCTGATGAGGCACCAACACTTCCCAATC: the binding signal (log2 normalized intensity) is -1.25.

Take AGACTTGGGTTCAAAGAGCACATTCCTGCA: the binding signal (log2 normalized intensity) was found to be 3.84.

For the sequence TCCTGCTGGGCAGAGGGCAGAAGCCTCTCT, the binding signal (log2 normalized intensity) was -1.26.

For GGATGCTGAGGTGGGAGGATCGCTTGAGCC, the binding signal (log2 normalized intensity) is -1.22.

Turning to CGAGGCCGAGCCTCAGCCGGGAGAGGAGGC, the binding signal (log2 normalized intensity) is -1.33.

As for AAAGATAGTTGTAGTTACAGCTCATTAATC, the binding signal (log2 normalized intensity) was -1.34.

As to AACATGTAAATATGACCTTTGCTTTTCAAG, the binding signal (log2 normalized intensity) came out at 5.13.

On to AGGCTCCCTCCCTGGGAGGCAGGACCTTGG, for which the binding signal (log2 normalized intensity) amounted to 1.21.

For TTCCCCTGACAAGTATCTCGGTCAAACCTT, the binding signal (log2 normalized intensity) came to 0.843.

Regarding GAGTAGGTTCTCAGCTGACATTGGTGGAAT, the binding signal (log2 normalized intensity) worked out at 1.08.

For the sequence CTCCAGCCACCCTGAAGGCTGAGCCTAGGA, the binding signal (log2 normalized intensity) is -1.33.

Regarding CTTCAGTCCTTCCCCCGCCAGATGTTTTTA, the binding signal (log2 normalized intensity) was found to be 4.06.

With ACCTGAAAGAGCAACTACTCTCTCTTCTGG, the binding signal (log2 normalized intensity) was -1.26.

As for CCAACGGGCCACGCCCTGCACCCTACGTAA, the binding signal (log2 normalized intensity) was -1.1.

Consider TGCGCCTCCCTAGAGCAGCAGTAGGCTCTC, for which the binding signal (log2 normalized intensity) is -1.32.

Regarding AGGACAAAGTCCAAGGAAGGGCAAACTCTA, the binding signal (log2 normalized intensity) stood at 3.82.

As for GGATCTGGCAGGGGCGCGGCCTAATGCCTG, the binding signal (log2 normalized intensity) was -1.42.

Regarding TTCATTGCTTTGAGCATGAGAGTTCATTGC, the binding signal (log2 normalized intensity) was 1.47.

Turning to CTCCAAGGTGTCCAGCTTAGAGTGGACACA, the binding signal (log2 normalized intensity) stood at 1.16.

For GTAGTGATCCTGGTAGGGGGGTGTTATCTC, the binding signal (log2 normalized intensity) was 0.56.

TGGAAATGCAAACACCTACATTCAAATCCT: the binding signal (log2 normalized intensity) is -1.37.

Regarding GACCATCACCACTTCAAGCTTGGTATGCTT, the binding signal (log2 normalized intensity) is -0.696.

On to TCTTTTGATAACTGATCTCTGGCTTGATCC, for which the binding signal (log2 normalized intensity) came out at 1.43.

As for CGCGAGCACCGCGCGCGCAAAGCGGGGGCG, the binding signal (log2 normalized intensity) is -1.38.

Turning to TCTGTCTGAGACCACTTAAGCCTGGAATTC, the binding signal (log2 normalized intensity) is -0.0786.

TTAACCTTTGCTCTCTGAAATGAAGGTCAG: the binding signal (log2 normalized intensity) turned out to be 4.25.

With GGAAGGCAAAGTTCAACCCTGAATGTGTGC, the binding signal (log2 normalized intensity) stood at 2.73.

Regarding GGAGCTCGGCGCCAGGAAGCAATGGCCCTC, the binding signal (log2 normalized intensity) is -1.11.

Take AGTGTAAATATTTGAGGACACAAAGTGGAC: the binding signal (log2 normalized intensity) was 2.34.

As for GTCAAAACTTTGTTTGAGTTCCAAAGTCCA, the binding signal (log2 normalized intensity) turned out to be 7.18.

For the sequence GGTCTCTCACCTGGCTTCCCTTTGATCTTT, the binding signal (log2 normalized intensity) stood at 3.84.

With GCGCTCCCTGTTTAGAATTCTGCCTCCCCC, the binding signal (log2 normalized intensity) was determined as 5.07.

Consider ATTTAAGACGAGTGGTTTGAGGTCACATAG, for which the binding signal (log2 normalized intensity) turned out to be 2.17.

As for TCAGGAGCCCCACAGAGCAAAGGTCATGCA, the binding signal (log2 normalized intensity) came out at 6.34.

GAGAAAATTCTAGATAACTCCAAGATTAGT: the binding signal (log2 normalized intensity) is -1.41.

For the sequence GCTCCTGGGCCCAGATATACAAGAAAGAAA, the binding signal (log2 normalized intensity) is -0.933.

TGCCTGCCCTCTCCATGCAGACAGTCCCTC: the binding signal (log2 normalized intensity) turned out to be 0.215.

AAGTAGACAGATCAGAGAGATTTTCACATG: the binding signal (log2 normalized intensity) is -0.892.

Take CGCTTGGCTCAGGCCGGTTGGCCAGGTTCC: the binding signal (log2 normalized intensity) was -1.14.

In the case of CTGGCCTGTTTGATCTGGTTTTTGTTGTTG, the binding signal (log2 normalized intensity) was determined as 2.25.

As to ACTCCCACCAGCATGGTGATGCTAGCTACT, the binding signal (log2 normalized intensity) is -1.35.

Turning to CCTCTGCAACCTTTGCTCTCCCTCCTCTCT, the binding signal (log2 normalized intensity) worked out at 3.82.

For the sequence CAGCTGCAGTGAAATTCTGGCCAACCAGCA, the binding signal (log2 normalized intensity) was -1.24.

For the sequence GGGACTAGCCTTATCTCAGATGAGACTTTG, the binding signal (log2 normalized intensity) is 2.03.

Regarding AAGTTCATTGTAGCCTCAAATTCCTGGGCT, the binding signal (log2 normalized intensity) is -1.28.

Take AACCATAATGAAATACCACTGCACACATAA: the binding signal (log2 normalized intensity) is -1.28.

As for AATAAAGTGGCAACCCTTGACCCCAGTAAC, the binding signal (log2 normalized intensity) came to 5.23.

On to ATAACGTTACAGTGGAGAAACCTGACAGAC, for which the binding signal (log2 normalized intensity) is -1.3.

Consider CCCAAGGAGAGGAGGGAACAGCAAGACTTT, for which the binding signal (log2 normalized intensity) was -1.44.

Regarding GCTGCTGGGAGGTAGCTCAAAGTCTAACCC, the binding signal (log2 normalized intensity) is 3.7.

With GGAAAAAAAAACCACTGTGTCACGCACGGT, the binding signal (log2 normalized intensity) was -1.17.

As to TCAAAGGAGGCATTCCTGCAATCAGAGCTG, the binding signal (log2 normalized intensity) is -1.29.

As to TTCAAAGGGCAAAAGGGCAAAACTGTCACA, the binding signal (log2 normalized intensity) was found to be 4.26.

For the sequence CATGGGAGATAGAGCAGTGGAAGACAAATG, the binding signal (log2 normalized intensity) is -1.31.

On to GAAGGCCTGTTAAAAACACGAGCTATTGCG, for which the binding signal (log2 normalized intensity) is -1.33.

Regarding TGAGGTGGCTGCAGAGTGGGAGGCCAAGAG, the binding signal (log2 normalized intensity) was -1.29.

With ATAAAACTGGAATAAAGCAGTCCCTACTTC, the binding signal (log2 normalized intensity) was -1.29.

ACAGAACAGATGGTGTTAAATCCTATCCTA: the binding signal (log2 normalized intensity) is -1.22.

With TAAATGACATAGTGACATTTACAGATAAAG, the binding signal (log2 normalized intensity) is -0.971.

GCCACCTGCTGGCTGAGCATCACCAGTGCA: the binding signal (log2 normalized intensity) was -1.43.

Consider CTCCCTCCCTCCCCCATTAGAGGCACACTC, for which the binding signal (log2 normalized intensity) came out at 4.45.

As to TCCTGAGTGATTGTAGTGTCATTGTTATTT, the binding signal (log2 normalized intensity) was found to be 1.98.

For the sequence AAGGAAATATCTTCCCATAAAACCTAGACA, the binding signal (log2 normalized intensity) was -1.08.

Regarding GGTGAGTGGGGAAAGAGCCCCTTTGTCCAT, the binding signal (log2 normalized intensity) turned out to be 0.812.

As to TCGGTCACCCACACAAAAATGTGCCTTCCC, the binding signal (log2 normalized intensity) was -1.24.

Consider TGTTCACAAGGAATTGGAATTGGGAGGACA, for which the binding signal (log2 normalized intensity) was -0.642.

Turning to CAGGACCATCTCGTCCCGTCAATCTGCAGC, the binding signal (log2 normalized intensity) is -1.23.

For TGGATTCCTCCAGCCCTCCTCTCTGTAGTC, the binding signal (log2 normalized intensity) was 0.728.

As to CGACTACAACAGCCTTGCAGATAAGCCACG, the binding signal (log2 normalized intensity) is -1.49.

Take GAGGCCAGTCTTACTGCTTTCTATTCAGAC: the binding signal (log2 normalized intensity) was -1.27.

For the sequence TCTCCCACAAGGGCAGCCCTGTTTAGGAGG, the binding signal (log2 normalized intensity) was -1.3.

Regarding TGTTCTGTTTAACAGAGATTTGCAGCTCAA, the binding signal (log2 normalized intensity) is -1.34.

With CCTAGCTGACTGCGTCAGGCAGTTGGAATT, the binding signal (log2 normalized intensity) came out at 0.00218.

Consider GACTGGAATGTCAAAGGGACAGCACTGGCA, for which the binding signal (log2 normalized intensity) is -1.27.

As to TTTGTCCTGGCACAACTGGATGGTGTTTGA, the binding signal (log2 normalized intensity) amounted to 1.19.

Take TGGTGCTATCTTTGCTCACTGTAACCTTTG: the binding signal (log2 normalized intensity) was found to be 4.34.

For the sequence GTGAATGGATGGATCCGCAGCCAGGGCTGT, the binding signal (log2 normalized intensity) was -1.24.

For the sequence ACTTCAAAGGGTGTTGTGACTACCTGGTTA, the binding signal (log2 normalized intensity) was found to be 0.742.

Consider TTAGTCTTATCTGAGGTGCCCTTACATTTT, for which the binding signal (log2 normalized intensity) worked out at 1.95.
